# Data published in PubChem BioAssay AID1508623 (National Center for Advancing Translational Sciences (NCATS), 2021).
# Out of some 48,000 compounds screened, about 450 (0.94%) were called active. Not shown: some 19% with an inconclusive outcome. Calls follow the shape of the dose curve; as a rule, active = well fitted inhibition curve with a large enough effect; inconclusive = small, poorly fitted or top-dose-only effect; inactive = no such curve, though single readings can be large or run the other way. The list shows a part of the results.
# Assay: Primary qHTS for Identification of Small Molecule Inhibitors of Huntingtin Promoter Activity; also: nearly all actives have a fitted effect of over 50% in size
# Settings: HEK293 HTT promoter firefly luciferase reporter (activity 0% = vehicle and -100% = no light), 24 h; series mostly up to 57.5 µM; activity change, negative = inhibition: at the top concentration
# Outline: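 HEK293 luciferase promoter-reporter cells (2,500/well) plated 24 h, then compounds added at up to 57.5 uM final for 24 h at 37 °C. Firefly luminescence by Dual-Glo, normalized to vehicle (0%) and zero RLU (-100%).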
# Potency is read from the fitted curve at half-maximal effect.
Compound,"activity change, negative = inhibition",Potency
Cc1nnc(N2CCC(C(=O)NCCc3ccccc3)CC2)c2nn(-c3ccc(Cl)cc3)c(C)c12,inactive: -11.3%,
CCOc1ccc(-n2nc3cc(C)c(NC(=O)c4cc(OCC)c(OCC)c(OCC)c4)cc3n2)cc1,inactive: -6.75% [at 11.5 µM],
CCN(CC)c1ccc(NC(=O)c2sc3nc4c(cc3c2N)CN(C)CC4)cc1,inactive: -10.7%,
O=C(Nc1ccc2nc(SCC(=O)N3CCc4ccccc43)sc2c1)c1cccc(Cl)c1,inactive: -17.8%,
COc1cc(OC)c(OC)cc1CNc1sc2c(c1C(=O)Nc1ccccc1OC)CCC2,inactive: -16.9%,
CN(C(=O)CCS(=O)(=O)c1cc2c(cc1Cl)NC(=O)CO2)C1CCCCC1,inactive: -7.05%,
Cc1nncn1-c1ccc(C(=O)Nc2cc(F)ccc2F)cc1,inactive: 4.69%,
Cc1ccc(CCNC(=O)CCS(=O)(=O)c2cc3c(cc2C)NC(=O)CO3)cc1,inactive: -15.4%,
COc1ccc(C)cc1NS(=O)(=O)c1cc2c3c(c1)CC(=O)N3CCC2,inactive: -12%,
CCn1c(=N)c(C(=O)NC2CCCCC2)cc2c(=O)n3cc(C)ccc3nc21,inactive: 6.16%,
COc1ccc(-n2c(=O)c3ccccc3n(CC(=O)NCCc3ccc(OC)c(OC)c3)c2=O)cc1,inactive: -13.9%,
COc1ccc(NC(=O)c2cc3c(=O)n(Cc4cccnc4)ccc3nc2C)cc1OC,inactive: -6.98%,
COc1ccc(-n2ncc(C(=O)Nc3cccc(C(F)(F)F)c3)c2C2CCN(C(=O)OC(C)(C)C)CC2)cc1,inactive: -17.6%,
CCOCCCN(Cc1ccco1)S(=O)(=O)c1cc2c(cc1C)NC(=O)CO2,inactive: -3.29%,
Cc1ccc(C2=Nc3ccccc3N(CC(=O)NCc3ccccc3Cl)C(=O)C2)cc1C,inactive: 50.8%,
COc1ccc(N2Cc3cccc(C(=O)Nc4ccc(F)cc4)c3C2=O)cc1,inactive: -17.8%,
CCN1CCCC1CN (configuration not stated),inactive: -9.71%,
O=C(Nc1c(C(=O)N2CCN(c3ccccc3)CC2)oc2ccccc12)c1ccco1,inactive: -32.3%,
O=C(C=CC=Cc1ccc2c(c1)OCO2)N1CCCCC1,inactive: 22.5%,
Cc1c(C(=O)NCCc2ccc(Cl)cc2)sc2nc3n(c(=O)c12)CCCC3,inactive: -2.99%,
CC(C)C(=O)NCC(c1ccc2c(c1)OCO2)N1CCN(c2ccccc2)CC1 (configuration not stated),inactive: -19.4%,

Compound,"activity change, negative = inhibition",Potency
Cc1ccccc1CN1c2ccccc2-c2nc(SCC(=O)NCc3ccccc3)ncc2S1(=O)=O,inactive: -31.5%,
COc1ccc(CCNC(=O)C(=O)NCC(c2ccc3c(c2)OCO3)N2CCOCC2)cc1OC (configuration not stated),inactive: -4.74%,
Cc1cccc(-c2noc(CSc3nc(-c4ccc(F)cc4)cc(=O)[nH]3)n2)c1,inactive: 24.5%,
Cc1cccn2c(=O)c(C(=O)NCCc3ccccc3)c(O)nc12,inactive: 50.3%,
CCOc1ccc(NC(=O)c2oc3ccccc3c2NC(=O)c2c(F)cccc2F)cc1,inactive: -15.4%,
CCOc1ccc(NC(=O)C2CCCN(S(=O)(=O)c3ccc4[nH]c(=O)ccc4c3)C2)cc1 (configuration not stated),inactive: -17.1%,
Cc1ccc(NC(=O)C(=O)c2cc(C)n(-c3ccc(F)cc3)c2C)cc1C,inactive: -23.8%,
COc1cccc(-n2ccn(CC(=O)c3ccc(F)cc3)c(=O)c2=O)c1,inactive: -18.1%,
COc1ccccc1N1CCN(C(=O)CSc2nc3ccccc3nc2Cc2ccccc2)CC1,inactive: -6.3%,
O=C(O)C=Cc1ccc(Cn2ccnc2)cc1,inactive: 15.6%,
Cc1ccc(CSC2=Nc3ccccc3C3=NC(CC(=O)NC4CCCCC4)C(=O)N23)cc1 (configuration not stated),inactive: 38.8%,
COc1ccc(CNC(=O)c2cc(Nc3ccc(C)cc3C)nc3ccccc23)cc1,inactive: 7.98%,
CCCN(CCC)S(=O)(=O)c1ccc2c(c1)N(CC(=O)NC(C)c1ccccc1)C(=O)CS2 (configuration not stated),inactive: -12.7%,
Cc1ccc2nc(-c3ccc(NC(=O)COc4ccccc4)cc3)sc2c1,inactive: 41.7%,
COc1ccccc1N1CCN(C(=O)c2cc(-c3ccc(F)cc3)on2)CC1,inactive: -7.9%,
CC(=O)c1ccc(N2C(=O)N(CC(=O)c3ccc(C)cc3)c3ccccc3S2(=O)=O)cc1,inactive: -23.2%,
Cc1ccc2oc(=O)c3cnn(CC(=O)N4CCN(c5ccccc5)CC4)c3c2c1,inactive: 6.63%,
Cc1c(Cl)cccc1NC(=O)CCN1C(=O)c2ccccc2Sc2ncccc21,inactive: -18.2%,
CCN(C(=O)Cn1nnc2sc(-c3ccccc3)cc2c1=O)c1cccc(C)c1,inactive: -2.43%,
Cc1cc(NC(=O)CCNS(=O)(=O)c2ccc3c(c2)oc(=O)n3C)ccc1Br,inactive: -15.5%,
CCN(CC)C(=O)c1cc(-c2ccc(Cl)cc2)on1,inactive: 50.2%,

Compound,"activity change, negative = inhibition",Potency
O=C(Nc1ccc(F)cc1F)c1cc2nc(-c3ccco3)cc(C(F)(F)Cl)n2n1,inactive: -5.99%,
COC(=O)c1cnn2c(C)c(Cc3c(C)cc(C)cc3C)c(C)nc12,inactive: -0.54%,
COc1ccc(NC(=O)CCn2c(=O)c3cccn3c3ccccc32)c(OC)c1,inactive: -1.97%,
CCC1CN(C(=O)Nc2cccc3c2CCCC3)c2ccccc2O1 (configuration not stated),inactive: -34.5%,
Cc1ccc2c(=O)cc(C(=O)Nc3ccc(S(=O)(=O)N(C)Cc4ccccc4)cc3)oc2c1,inactive: -4.17%,
CCN(CC)S(=O)(=O)c1ccc2c(c1)c(=O)c(C(=O)N1CCN(c3cccc(C)c3)C(C)C1)cn2C (configuration not stated),inactive: 2.35%,
Cc1ccc(CNC(=O)CN(c2ccc(C)cc2)S(=O)(=O)c2c(C)nn(C)c2C)cc1,inactive: -14.1%,
CC(=O)c1ccc(NC(=O)CN(C)S(=O)(=O)c2cccc3nsnc23)cc1,inactive: -6.02%,
COc1ccccc1-c1cc2nc(C)c(CCC(=O)NCc3cccc(Cl)c3)c(C)n2n1,,active: 12.6 µM
CCCCn1c(C(C)NC(=O)c2ccccc2)nc2ccccc21 (configuration not stated),inactive: -26.5%,
COc1ccc(N2CC(NC(=O)C3CC3)CC2=O)cc1OC (configuration not stated),inactive: -12.1%,
Cc1c(C(=O)Nc2ccc(F)cc2)sc2nc[nH]c(=O)c12,inactive: 43.4%,
CC(C)CCn1c(=O)c2sccc2n2c(CCCC(=O)NCc3ccc(F)cc3)nnc12,inactive: -23.7%,
Fc1cccc(-n2ncc3c2ncn2nc(-c4ccccc4Cl)nc32)c1,inactive: 1.42%,
O=C(Cn1c(=O)c2cccn2c2ccc(F)cc21)N1CCN(c2ccc(F)cc2)CC1,inactive: -12.7%,
Cc1cccc(N2CCN(C(=O)CCn3c(=O)c4cccn4c4cccnc43)CC2)c1C,inactive: -6.32%,
Cc1ccn2c(=O)c(C(=O)NC(C)c3ccccc3)c(O)nc2c1 (configuration not stated),inactive: 1.88%,
COc1ccccc1N1CCN(C(=O)c2cc(-c3ccccc3O)on2)CC1,inactive: -10.3% [at 11.5 µM],
N#Cc1cccc(NC(=O)c2cc3c(s2)-c2ccc(Cl)cc2SC3)c1,inactive: -18.3%,
CCOc1ccc(C(=O)Nc2cc(-c3nc4ccccc4s3)ccc2OC)cc1,inactive: -35.8%,
